Consider 30 molecules from US20180057551A1 (AMYLONIX, published 2018).

Substitutions are numbered along the chain they refer to. Numbers in names are those of the source.

The labels stand for the following.
B1: ABPP018 with C-terminal His6 tag (designed binder)
chain: AGGEIVYFPNLNADQLCAFIRSLEDDPSQQANLLAEAKKLNDAQAPASSSSGSSSSGSSSSGRASAGRERVYLPNLNADQLCAFIRSLEDDQSQRANLLAEAKKLNDAQAPKHHHHHH
notes: (S4G)3 linker
B2: ABPP028 with C-terminal His6 tag (designed binder)
chain: AGGEIVYLPNLNAHQLCAFIQSLEDDPSQQANLLAEAKKLNDAQAPASSSSGSSSSGRASAGRERVYLPNLNAHQLCAFIQSLEDDPSQSANLLAEAKKLNDAQAPKHHHHHH
B3: ABPP070 with C-terminal His6 tag (designed binder)
chain: B2 chain with G3R, I5R, H14D, Q21R, Q30S, R63G, H74D
B4: ABPP084 with C-terminal His6 tag (designed binder)
chain: B2 chain with I5R, L8F, P9T, H14D, Q21R, N32K, H74D, Q81R
B5: ABPP049 with C-terminal His6 tag (designed binder)
chain: B2 chain with I5R, L8F, P9T, H14D, Q30S, Q81R, S90Q
B6: ABPP035 with C-terminal His6 tag (designed binder)
chain: B2 chain with L8F, Q21R, H74D, Q81N, L83I
B7: ABPP050 with C-terminal His6 tag (designed binder)
chain: B2 chain with H14D, Q30S, S90Q
B8: ABPP001 displayed on S. carnosus, fused to ABP (designed binder)
chain: AGGEIVYFPNLNADQLCAFIRSLEDDPSQSANLLAEAKKLNDAQAPASSSSGSSSSGRASAGRERVYLPNLNADQLCAFIQSLEDDPSQQANLLAEAKKLNDAQAPKKLLDALAKAKADALKEFNKYGVSDYYKNLINNAKTVEGVKDLQAQVVESAKKARISEATDGLSDFLKSQTPAEDTVKSIELAEAKVLANRELDKYGVSDYHKNLINNAKTVEGVKDLQAQVVESAKKARISEATDGLSDFLKSQTPAEDTVKSIELAEAKVLANRELDKYGVSDYYKNLINNAKTVEGVKALIDEILAALP
notes: pSCZ1 surface display
B9: ABPP070 displayed on S. carnosus, fused to ABP (designed binder)
chain: B8 chain with G3R, I5R, F8L, R63G, Q90S
notes: pSCZ1 surface display
B10: ABPP014 displayed on S. carnosus, fused to ABP (designed binder)
chain: B8 chain with F8L, D14H, R21Q, S30Q, Q81N, Q90S
notes: pSCZ1 surface display
B11: ABPP005 displayed on S. carnosus, fused to ABP (designed binder)
chain: B8 chain with I5R, F8L, D74H, Q81N, L83I, Q90S
notes: pSCZ1 surface display
B12: ABPP060 displayed on S. carnosus, fused to ABP (designed binder)
chain: B8 chain with R21Q, S30Q, D74H, Q81R, P87R
notes: pSCZ1 surface display
B13: ABPP028 displayed on S. carnosus, fused to ABP (designed binder)
chain: B8 chain with F8L, D14H, R21Q, S30Q, D74H, Q90S
notes: pSCZ1 surface display
B14: ABPP021 displayed on S. carnosus, fused to ABP (designed binder)
chain: B8 chain with D14H, Q90S
notes: pSCZ1 surface display
B15: ABPP042 displayed on S. carnosus, fused to ABP (designed binder)
chain: B8 chain with I5R, F8L, Q81R
notes: pSCZ1 surface display
B16: ABPP049 displayed on S. carnosus, fused to ABP (designed binder)
chain: B8 chain with I5R, P9T, R21Q, D74H, Q81R
notes: pSCZ1 surface display
B17: ABPP013 displayed on S. carnosus, fused to ABP (designed binder)
chain: B8 chain with S30Q, Q81R, P87R
notes: pSCZ1 surface display
B18: ABPP025 displayed on S. carnosus, fused to ABP (designed binder)
chain: B8 chain with I5R, F8L, D14H, Q81R, Q90S
notes: pSCZ1 surface display
B19: ABPP048 displayed on S. carnosus, fused to ABP (designed binder)
chain: B8 chain with R21Q, Q81R
notes: pSCZ1 surface display
B20: ABPP026 displayed on S. carnosus, fused to ABP (designed binder)
chain: B8 chain with D14H, Q81N
notes: pSCZ1 surface display
B21: ABPP061 displayed on S. carnosus, fused to ABP (designed binder)
chain: B8 chain with I5R, F8L, R63G, R65I, L68F, D74H, Q81R, Q90S
notes: pSCZ1 surface display
B22: ABPP062 displayed on S. carnosus, fused to ABP (designed binder)
chain: B8 chain with I5R, F8L, R21Q, R63G, R65I, L68F, D74H, Q81N, Q90S
notes: pSCZ1 surface display
B23: ABPP040 displayed on S. carnosus, fused to ABP (designed binder)
chain: B8 chain with S30Q, Q81R
notes: pSCZ1 surface display
B24: ABPP035 displayed on S. carnosus, fused to ABP (designed binder)
chain: B8 chain with D14H, S30Q, Q81N, L83I, Q90S
notes: pSCZ1 surface display
B25: ABPP054 displayed on S. carnosus, fused to ABP (designed binder)
chain: B8 chain with S30Q, D74H, Q81R
notes: pSCZ1 surface display
B26: ABPP033 displayed on S. carnosus, fused to ABP (designed binder)
chain: B8 chain with R21Q, S30Q, Q81R
notes: pSCZ1 surface display
B27: ABPP020 displayed on S. carnosus, fused to ABP (designed binder)
chain: B8 chain with D14H, D74H, L83I, Q90S
notes: pSCZ1 surface display
B28: ABPP050 displayed on S. carnosus, fused to ABP (designed binder)
chain: B8 chain with F8L, R21Q, D74H
notes: pSCZ1 surface display
B29: ABPP016 displayed on S. carnosus, fused to ABP (designed binder)
chain: B8 chain with V6H, D14H, S30Q, Q81R
notes: pSCZ1 surface display
B30: ABPP018 displayed on S. carnosus, fused to ABP (designed binder)
chain: AGGEIVYFPNLNADQLCAFIRSLEDDPSQQANLLAEAKKLNDAQAPASSSSGSSSSGSSSSGRASAGRERVYLPNLNADQLCAFIRSLEDDQSQRANLLAEAKKLNDAQAPKKLLDALAKAKADALKEFNKYGVSDYYKNLINNAKTVEGVKDLQAQVVESAKKARISEATDGLSDFLKSQTPAEDTVKSIELAEAKVLANRELDKYGVSDYHKNLINNAKTVEGVKDLQAQVVESAKKARISEATDGLSDFLKSQTPAEDTVKSIELAEAKVLANRELDKYGVSDYYKNLINNAKTVEGVKALIDEILAALP
notes: pSCZ1 surface display

Usually Kd stands for the concentration at which binding is half-saturated. The term koff denotes the first-order rate constant of dissociation. What is called kon is the rate constant with which the complex forms.

One assay has as its target T1, human Aβ1-40 peptide (human, biotin at the C-terminus (flow cytometry, Examples 2-4) or at the N-terminus (SPR, ELISA); unlabeled plus Alexa488/Alexa647-labeled in FCS).
T1 construct: synthetic peptide (AnaSpec); one entry for all labelled forms, label named under assay; also called hAβ1-40; Aβ40
The assay is described as follows: SPR ProteOn XPR36, biotinylated Aβ1-40 on Neutravidin chip, 1:1 Langmuir.
In the case of B1, the Kd worked out at 0.97 nM, the koff came to 8.8e-05 s⁻¹ and the on-rate constant (kon) amounted to 91000 M⁻¹ s⁻¹.

Consider B2, for which the Kd was determined as 1.02 nM, the koff is 9e-05 s⁻¹ and the kon amounted to 88000 M⁻¹ s⁻¹.

Turning to B3, the dissociation constant Kd worked out at 0.59 nM, the koff worked out at 4.2e-05 s⁻¹ and the kon is 72000 M⁻¹ s⁻¹.

As for B4, the Kd worked out at 1.4 nM, the koff stood at 0.00015 s⁻¹ and the kon is 110000 M⁻¹ s⁻¹.

Consider B5, for which the Kd was 1.15 nM, the koff is 0.00015 s⁻¹ and the kon is 130000 M⁻¹ s⁻¹.

As to B6, the equilibrium dissociation constant (Kd) was 2.6 nM, the koff came out at 6.7e-05 s⁻¹ and the on-rate constant (kon) amounted to 28000 M⁻¹ s⁻¹.

Regarding B7, the dissociation constant (Kd) turned out to be 6.9 nM, the koff was found to be 7.1e-05 s⁻¹ and the kon worked out at 16000 M⁻¹ s⁻¹.

The next assay concerns the target T1, human Aβ1-40 peptide. The assay is described as follows: flow cytometry, on-cell off-rate ranking on S. carnosus: 25 nM biotinylated Aβ1-40, 100 nM unlabeled Aβ1-40 for 6 h; MFI of Aβ binding (FL-2) / MFI of surface expression (FL-6). Background: In flow cytometry, cells or beads pass a laser one at a time.
As to B8, the binding result is recorded as “binds”.

B9: the binding result is on record as “binds”.

Take B10: the binding result was “binds”.

In the case of B11, the binding result is “binds”.

As to B12, the binding result is reported as “binds”.

As to B13, the binding result was “binds”.

For the molecule B14, the binding result is on record as “binds”.

For the molecule B15, the binding result is “binds”.

B16: the binding result was “binds”.

B17: the binding result is “binds”.

B18: the binding result is “binds”.

Take B19: the binding result is recorded as “binds”.

For B20, the binding result is “binds”.

Turning to B21, the binding result is “binds”.

Consider B22, for which the binding result is “binds”.

With B23, the binding result is recorded as “binds”.

Consider B24, for which the binding result is “binds”.

B25: the binding result is given as “binds”.

As for B26, the binding result is “binds”.

For B27, the binding result is “binds”.

Take B28: the binding result was “binds”.

Take B29: the binding result is “binds”.

For the molecule B30, the binding result is on record as “binds”.
